# Measurements reported in the BET-seq Pho4 binding data (Le et al. 2018).
# The list shows a part of the results. Values were computed here from the reads of four pooled replicates and scatter widely.
# Biological target: T1, Pho4 (S. cerevisiae) (UniProt P07270)
# T1 sequence: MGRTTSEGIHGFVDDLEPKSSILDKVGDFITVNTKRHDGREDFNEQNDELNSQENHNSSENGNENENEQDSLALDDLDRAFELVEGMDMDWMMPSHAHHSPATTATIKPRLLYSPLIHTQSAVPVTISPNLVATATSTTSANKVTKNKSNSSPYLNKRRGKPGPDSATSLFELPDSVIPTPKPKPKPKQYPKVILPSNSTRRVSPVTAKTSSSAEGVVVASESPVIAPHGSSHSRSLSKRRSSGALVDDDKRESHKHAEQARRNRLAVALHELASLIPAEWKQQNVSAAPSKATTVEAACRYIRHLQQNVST
# Assay: relative binding free energy (BET-seq); higher = weaker binding
# Conditions: reference: library average
row,Sequence,relative binding free energy [kcal/mol]
1,CGGTGCACGTGTTAAT,-0.03
2,GTGTACACGTGAAGAT,0.15
3,TGCGGCACGTGTCGGA,-0.18
4,TTAAGCACGTGGTACT,-0.15
5,CGTGACACGTGCTGGT,-0.1
6,TTAGCCACGTGAGGGA,0.16
7,GTTTGCACGTGGGTCG,-0.13
8,GTCAGCACGTGAGGCG,0.18
9,AGGTCCACGTGCGTTG,-0.07
10,AAGTACACGTGATTGG,0.12
11,TGCTTCACGTGTAAGG,0.21
12,GGTTTCACGTGAGGGA,0.34
13,GTATTCACGTGCGGGA,0.29
14,TGGCTCACGTGATGAT,0.33
15,GGGTCCACGTGGGTAT,-0.08
16,TGTATCACGTGATAAT,0.27
17,TTTTGCACGTGTGTAT,0.01
18,TGGTGCACGTGCTATG,0
19,TTAGACACGTGTGATG,0.1
20,GGTTACACGTGGTCTT,0.2
21,ATAGACACGTGTTCGT,0.02
22,ATCTGCACGTGTTTGA,-0.05
23,TATAGCACGTGTTGGT,-0.04
24,CGGGGCACGTGACGGT,-0.02
25,GTGTACACGTGCCGTG,0.03

row,Sequence,relative binding free energy [kcal/mol]
1,TTATTCACGTGCGGAG,0.11
2,GTTTGCACGTGGAGTG,0.02
3,GAAAGCACGTGATGTA,0.14
4,GTTGGCACGTGCGGCC,0
5,GACTGCACGTGAGGGG,0.23
6,TTGGGCACGTGTGTCG,-0.03
7,TCTGTCACGTGGGTCT,-0.05
8,TTTCACACGTGTGGAG,0.18
9,CATATCACGTGCTGGT,0.16
10,GGGCTCACGTGAGCGT,0.3
11,ATTGGCACGTGCGGGG,-0.18
12,CTTAGCACGTGATGGT,0.04
13,TTATACACGTGGTGGG,0.01
14,GTAATCACGTGTGGTT,0.26
15,TGCGTCACGTGGAATT,0.19
16,TGTTTCACGTGCGCGA,0.32
17,AATGTCACGTGGAGCT,0.11
18,TTGGCCACGTGTTGGG,-0.04
19,TTTGACACGTGTCTTG,-0.06
20,ATTTACACGTGTGACG,0.18
21,TAGGGCACGTGGTTTT,-0.14
22,TTTTACACGTGTAGGA,-0.06
23,TGTGACACGTGTACGG,0.13
24,AGTTACACGTGTCAGT,0.08
25,CGCGTCACGTGTCGGG,0.19

row,Sequence,relative binding free energy [kcal/mol]
1,GGGCACACGTGGGCGT,-0.14
2,CTGGGCACGTGCATTG,-0.1
3,GACATCACGTGGGGTT,-0.01
4,TGTGGCACGTGTCGAT,-0.02
5,TTTAGCACGTGCCGGT,-0.04
6,ATCGGCACGTGGAGTT,-0.08
7,TCGGTCACGTGGGTGT,-0.07
8,GGGGCCACGTGGAATG,-0.01
9,GGCGGCACGTGCGGGG,-0.22
10,GCTTACACGTGGGAGG,0.09
11,TGTTACACGTGTAAAG,0.21
12,ACCTTCACGTGGTGGG,0.2
13,TTCTACACGTGGATTT,0.17
14,GTTAGCACGTGGGTAT,-0.21
15,TCTGACACGTGGGTAT,-0.2
16,TGGCACACGTGTTTTG,0.05
17,GTCGTCACGTGCGGAG,0.06
18,TTAGTCACGTGGGGTG,0
19,TTTTGCACGTGGTCAG,-0.09
20,GGGGTCACGTGGGGGG,0.08
21,TTGAGCACGTGGTCGA,-0.18
22,CATTGCACGTGTTGTA,0.05
23,AGATGCACGTGTGAAT,0.21
24,TATGTCACGTGAACGT,0.26
25,TTCTTCACGTGATAGT,0.19

row,Sequence,relative binding free energy [kcal/mol]
1,TGTGACACGTGTAAGG,0.19
2,CGTATCACGTGTTTTA,0.03
3,TGCGGCACGTGTATTT,-0.07
4,TGGGGCACGTGATTGA,-0.02
5,TGTTTCACGTGCGGAG,0.12
6,GTGCTCACGTGTTGTC,0.3
7,GTGCGCACGTGAGCGG,0.11
8,TTAGACACGTGTCGGT,-0.08
9,TAGGACACGTGAAGGG,0.25
10,TGCTTCACGTGGATAT,0.33
11,TAATTCACGTGGTCGT,0.24
12,TACGTCACGTGGTGGT,0.03
13,TAGGGCACGTGATTCT,-0.02
14,GATTCCACGTGTGGGG,0.16
15,ATGTGCACGTGAGCAT,0
16,AAGTTCACGTGGGGGC,0.32
17,GTTTTCACGTGTGAAA,0.46
18,GCTTTCACGTGGGGTC,0.2
19,TCAGTCACGTGTGAGT,0.11
20,TAAATCACGTGGTTTT,0.12
21,GGGCACACGTGAGGGG,0.24
22,GGGTCCACGTGAGGCG,0.28
23,GAGTGCACGTGATGTT,0.22
24,CGTGGCACGTGCGGCT,-0.26
25,TTTAACACGTGGGGAC,-0.04

row,Sequence,relative binding free energy [kcal/mol]
1,TAAGACACGTGGTGCG,0.03
2,TGTCACACGTGGAATG,0.04
3,AGTTTCACGTGCGAGA,0.34
4,TGAGTCACGTGCTCGT,0.26
5,AATCTCACGTGGTGTA,0.03
6,GGACGCACGTGGGGTT,-0.28
7,CATGCCACGTGTTTTT,0
8,GTTGGCACGTGATTCG,-0.07
9,AATGGCACGTGCTGGG,-0.16
10,CGTTGCACGTGGCGGT,-0.15
11,TCGTTCACGTGGGTTA,0.11
12,TAAATCACGTGTGTAG,0.18
13,CGAATCACGTGAGGTT,0.39
14,TTTGTCACGTGTTCAC,0.23
15,AATTTCACGTGGGGGG,0.26
16,CGTCGCACGTGCGGGG,-0.09
17,AATTACACGTGTGGTA,0.03
18,AATTTCACGTGGGGCG,0.24
19,AGGGGCACGTGAAGTA,0.16
20,TTTATCACGTGCGTCG,0.07
21,TCTCGCACGTGGGTGT,-0.26
22,TGAAGCACGTGAAAGG,0.21
23,TGGTACACGTGGTAGC,0.1
24,GGGGGCACGTGGAGAA,0.01
25,CTAGTCACGTGAGTTG,0.19

row,Sequence,relative binding free energy [kcal/mol]
1,GGGTGCACGTGGTGAT,0
2,GGCGGCACGTGACGTG,0.02
3,GTGCGCACGTGTTTGT,-0.08
4,TGGGGCACGTGCGGAG,-0.23
5,TAATTCACGTGTTTAG,0.14
6,GACGGCACGTGTGTGT,-0.03
7,AATTCCACGTGGTAGT,-0.03
8,AGGAACACGTGTTTGG,-0.01
9,TTGTTCACGTGAGTAC,0.41
10,TTCTTCACGTGTGTTT,0.33
11,TGCTACACGTGTTGGG,-0.02
12,GGTAACACGTGTAATT,0.12
13,AGTTGCACGTGGTCGG,-0.06
14,AAATTCACGTGGGATT,0.26
15,GTGTACACGTGTTAGA,-0.07
16,TGCTACACGTGCTGGA,0.15
17,TGTTGCACGTGGCAGA,-0.07
18,TGCAACACGTGGGTTT,-0.12
19,GCCTGCACGTGTGAGG,0.18
20,TGGTTCACGTGTTACT,0.27
21,GCAAGCACGTGGGGTG,-0.22
